The results in this text go back to patent US20220340642A1 (Kyowa Kirin, published 2022).

Changes are numbered by the printed parent chain. In names and notes the source's numbering stands. Like-named read-outs stand apart in the source and are kept apart here.

One may read the Kd as the concentration at which binding is half-saturated. A word on the koff: it is a measure of how fast the partners let go of each other. In general, kon refers to a measure of how fast the partners come together.

Test [1] has as its target T1, soluble recombinant of human LIGHT (His10, GS linker, Asp74-Val240) (human).
T1 chain: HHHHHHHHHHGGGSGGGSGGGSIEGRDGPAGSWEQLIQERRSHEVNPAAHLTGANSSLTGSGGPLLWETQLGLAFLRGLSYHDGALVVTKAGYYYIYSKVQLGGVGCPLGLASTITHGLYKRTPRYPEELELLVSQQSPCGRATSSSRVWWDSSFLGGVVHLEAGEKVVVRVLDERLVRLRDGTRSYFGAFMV
Nature of the test: SPR, binder captured. The protocol:
(§1) Regarding each of the various wild-type DcR3 controls and the DcR3 variants shown in Table 9, the binding activities to DcR3 ligands (LIGHT, TL1A, FasL) were analyzed by the SPR method using BIAcore T-100 (GE Healthcare). As the buffer, HBS-EP+Buffer was used.
(§2) After 10,000 RU of anti-human antibodies were immobilized to Series S Sensor Chip CM5 using Human Antibody Capture Kit (GE Healthcare), various wild-type DcR3 controls and DcR3 variants were injected at the flow rate of 10 μL/min for 30 seconds and captured. Meanwhile, the buffer containing no protein was injected into reference flow cells. Thereafter, as an analyte, DcR3 ligands of a human, a cynomolgus monkey or a mouse diluted to 0.08 to 80 nmol/L were injected at 10 μL/min for 2 minutes to monitor the binding, and subsequently the buffer was injected for 3 minutes to monitor dissociation. Then, 3 mol/L magnesium chloride was injected at 20 μL/min for 1 minute to perform a regeneration reaction. […] As a result of measurement, except for mouse LIGHT for which a trimer could not be produced, it was confirmed that various wild-type DcR3 controls and DcR3 variants bind to each DcR3 ligand of a human, a cynomolgus monkey or a mouse.
A general note: Surface plasmon resonance follows binding to a sensor surface in real time, without labels.

The target in test [2] is T2, soluble recombinant of human TL1A (His6, GS linker, Leu72-Leu251) (human, UniProt O95150 72-251).
T2 construct: also called His6-TL1A; hTL1A
T2 sequence: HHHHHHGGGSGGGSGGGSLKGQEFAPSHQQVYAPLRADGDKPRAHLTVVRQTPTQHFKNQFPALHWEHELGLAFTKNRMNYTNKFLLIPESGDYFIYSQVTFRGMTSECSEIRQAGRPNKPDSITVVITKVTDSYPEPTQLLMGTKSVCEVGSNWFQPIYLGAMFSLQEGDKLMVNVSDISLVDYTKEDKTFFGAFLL
Nature of the test: SPR, binder captured. The protocol:
as §1, §2

In test [3] the target is T3, soluble recombinant of human FasL (His6, Pro134-Leu281) (human, UniProt P48023 134-281).
T3 sequence: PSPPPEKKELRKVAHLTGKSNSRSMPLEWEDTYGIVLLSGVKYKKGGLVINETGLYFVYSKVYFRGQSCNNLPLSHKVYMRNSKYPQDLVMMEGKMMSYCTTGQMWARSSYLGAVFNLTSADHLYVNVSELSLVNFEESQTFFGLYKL
The test can be described thus: SPR, binder captured. The protocol:
as §1, §2

Test [4] has as its target T4, FLAG-LIGHT (FLAG tag, human LIGHT Asp74-Val240) (human, UniProt O43557 74-240).
T4 construct: SEC trimer fraction; also called soluble recombinant FLAG-LIGHT trimer; soluble human LIGHT trimer
The test can be described thus: SPR, binder captured, trimer ligand. The protocol: The binding activities to human DcR3 trimer ligands were analyzed by the SPR method. BIAcore T-100 (GE Healthcare) was used for measurement of the binding activities to human LIGHT and human TL1A, and BIAcore T-100 (GE Healthcare) or BIAcore T-200 (GE Healthcare) was used for measurement of the binding activity to human FasL. As the buffer, HBS-EP+Buffer was used.
After 10,000 RU of anti-human antibodies were immobilized to Series S Sensor Chip CM5 using Human Antibody Capture Kit (both of which are manufactured by GE Healthcare), various wild-type DcR3 controls and DcR3 variants were injected at the flow rate of 10 μL/min for 30 seconds and captured. Meanwhile, the buffer containing no protein was injected into a reference flow cell. Thereafter, as an analyte, each human DcR3 trimer ligand diluted to 0.02 to 80 nmol/L was injected at 30 μL/min for 2 minutes to monitor the binding, and subsequently the buffer was injected for 3 minutes to monitor dissociation. Then, 3 mol/L magnesium chloride was injected at 30 μL/min for 1 minute to perform a regeneration reaction.

The target in test [5] is T5, soluble recombinant of human TL1A (His6, GS linker, Leu72-Leu251) (UniProt O95150 72-251).
T5 chain: T2 sequence
The test can be described thus: SPR.

For test [6], the target named is T6, soluble recombinant of human LIGHT (His10, GS linker, Asp74-Val240).
T6 chain: T1 chain
Nature of the test: SPR.

Test [7] deals with T7, soluble recombinant of human FasL (His6, Pro134-Leu281) (UniProt P48023 134-281).
T7 chain: T3 sequence
Nature of the test: SPR.

Test [8] has as its target T5, soluble recombinant of human TL1A …. Nature of the test: BIAcore SPR. In a few lines: (§3)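 Surface plasmon resonance was used to analyse how each test molecule bound to soluble recombinant His-tagged LIGHT, TL1A or FasL of human or cynomolgus monkey origin. Runs took place in HBS-EP+ Buffer on a BIAcore T-100 or T-200 instrument (GE Healthcare). The dissociation constant (Kd, nM) was obtained from these measurements.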

Test [9] concerns the target T6, soluble recombinant of human LIGHT …. The test can be described thus: BIAcore SPR. The procedure, abridged:
as §3

In test [10] the target is T7, soluble recombinant of human FasL …. The test can be described thus: BIAcore SPR. In a few lines: as §3
For test [11], the target named is T5, soluble recombinant of human TL1A …. Nature of the test: SPR.
Test [12] has as its target T6, soluble recombinant of human LIGHT …. Nature of the test: SPR.
Test [13] concerns the target T7, soluble recombinant of human FasL …. The test can be described thus: SPR.
Test [14] concerns the target T5, soluble recombinant of human TL1A …. Nature of the test: SPR.
Test [15] addresses T6, soluble recombinant of human LIGHT …. The test can be described thus: SPR.
In test [16] the target is T7, soluble recombinant of human FasL …. The test can be described thus: SPR.
Test [17] deals with T5, soluble recombinant of human TL1A …. The test can be described thus: BIAcore SPR.
Test [18] concerns the target T6, soluble recombinant of human LIGHT …. Nature of the test: BIAcore SPR.
Test [19] deals with T7, soluble recombinant of human FasL …. Nature of the test: BIAcore SPR.

B1: chimera A-Fc (g4PEK) (Fc fusion)
chain: ETFPPKYLHYDEETSHQLLCDKCPPGTYLKQHCTAKWKTVCAPCPPRHYTQFWNYLERCRYCNVLCGEREEEARACHATHNRACRCRTGFFAHAGFCLEHASCPPGAGVIAPGTPSQNTQCQPCPDGFFSNETSSKAPCRKHTNCSVFGLLLTQKGNATHDNICSGNSESTQK[omitted - human IgG4 Fc with S228P L235E R409K (EU numbers)]
notes: also called Chimera A-g4PEK
On to B1, for which the Kd came to 0.62 nM in test [1]; 0.42 nM in [2]; 1 nM in test [3]; 0.14 nM in [8]; 0.18 nM in test [9]; 0.53 nM in test [10]. Also, the koff is 0.00033 s⁻¹ in [1]; 0.00036 s⁻¹ in [2]; 0.001 s⁻¹ in [3]; 0.000275 s⁻¹ in [5]; 0.000172 s⁻¹ in test [6]; 0.000944 s⁻¹ in test [7]. Moreover, the results for the on-rate (kon) in test [1], in test [2] and in test [3] were 540000 M⁻¹ s⁻¹, 870000 M⁻¹ s⁻¹ and 1e+06 M⁻¹ s⁻¹, respectively. Further, the binding result in [4] was “binds”.

B2: chimera A-Fc (g4PEK) R60L (Fc fusion)
chain: B1 chain with R60L
In the case of B2, the koff in [11] turned out to be 0.000328 s⁻¹; in test [12], 0.00022 s⁻¹; in [13] it was 0.00111 s⁻¹.

B3: chimera A-Fc (g4PEK) R60D (Fc fusion)
chain: B1 chain with R60D
For B3, the off-rate constant (koff) in test [11] was 0.000848 s⁻¹; in test [12], 0.000474 s⁻¹; in [13] it was 9.49e-06 s⁻¹.

B4: chimera A-E57K-Fc (g4PEK) (Fc fusion)
chain: B1 chain with E57K
As for B4, the binding result in test [1] and in test [3] was “binds” in each case. Further, the figures for the koff in [14], in test [15] and in [16] were 0.000366 s⁻¹, 0.000224 s⁻¹ and 0.00475 s⁻¹, respectively. Moreover, the dissociation constant Kd in [17] came out at 0.35 nM; in test [18] it was 0.33 nM; in [19], 3.2 nM.

B5: chimera A-E57L-Fc (g4PEK) (Fc fusion)
chain: B1 chain with E57L
As to B5, the binding result in test [1] and in [3] was “binds” throughout. Further, the koff in test [14] amounted to 0.000422 s⁻¹; in [15], 0.000209 s⁻¹; in test [16], 0.0091 s⁻¹. The figures for the Kd in [17], in [18] and in [19] were 0.27 nM, 0.28 nM and 2.6 nM, respectively.

B6: chimera A-R60K-Fc (g4PEK) (Fc fusion)
chain: B1 chain with R60K
As to B6, the binding result in [1], in [2] and in test [3] was “binds” throughout. For the same molecule, the koff in test [11] amounted to 0.000649 s⁻¹; in [12] it was 0.000925 s⁻¹; in [13], 0.00519 s⁻¹.
